Laboratory results reported in article PMC4336329 (PLoS ONE, 2015).
The whole screen tested about 310,000 compounds, of which about 2,200 (0.71%) showed an effect of 50% or more. Effects have a minus sign here. Some of the results follow.

Target: human ether-à-go-go-related gene (hERG) potassium channel (human, UniProt Q12809)
Experiment: primary screen, population patch clamp on CHO cells stably expressing hERG

Chain of human ether-à-go-go-related gene (hERG) potassium channel (Q12809 whole entry, looked up): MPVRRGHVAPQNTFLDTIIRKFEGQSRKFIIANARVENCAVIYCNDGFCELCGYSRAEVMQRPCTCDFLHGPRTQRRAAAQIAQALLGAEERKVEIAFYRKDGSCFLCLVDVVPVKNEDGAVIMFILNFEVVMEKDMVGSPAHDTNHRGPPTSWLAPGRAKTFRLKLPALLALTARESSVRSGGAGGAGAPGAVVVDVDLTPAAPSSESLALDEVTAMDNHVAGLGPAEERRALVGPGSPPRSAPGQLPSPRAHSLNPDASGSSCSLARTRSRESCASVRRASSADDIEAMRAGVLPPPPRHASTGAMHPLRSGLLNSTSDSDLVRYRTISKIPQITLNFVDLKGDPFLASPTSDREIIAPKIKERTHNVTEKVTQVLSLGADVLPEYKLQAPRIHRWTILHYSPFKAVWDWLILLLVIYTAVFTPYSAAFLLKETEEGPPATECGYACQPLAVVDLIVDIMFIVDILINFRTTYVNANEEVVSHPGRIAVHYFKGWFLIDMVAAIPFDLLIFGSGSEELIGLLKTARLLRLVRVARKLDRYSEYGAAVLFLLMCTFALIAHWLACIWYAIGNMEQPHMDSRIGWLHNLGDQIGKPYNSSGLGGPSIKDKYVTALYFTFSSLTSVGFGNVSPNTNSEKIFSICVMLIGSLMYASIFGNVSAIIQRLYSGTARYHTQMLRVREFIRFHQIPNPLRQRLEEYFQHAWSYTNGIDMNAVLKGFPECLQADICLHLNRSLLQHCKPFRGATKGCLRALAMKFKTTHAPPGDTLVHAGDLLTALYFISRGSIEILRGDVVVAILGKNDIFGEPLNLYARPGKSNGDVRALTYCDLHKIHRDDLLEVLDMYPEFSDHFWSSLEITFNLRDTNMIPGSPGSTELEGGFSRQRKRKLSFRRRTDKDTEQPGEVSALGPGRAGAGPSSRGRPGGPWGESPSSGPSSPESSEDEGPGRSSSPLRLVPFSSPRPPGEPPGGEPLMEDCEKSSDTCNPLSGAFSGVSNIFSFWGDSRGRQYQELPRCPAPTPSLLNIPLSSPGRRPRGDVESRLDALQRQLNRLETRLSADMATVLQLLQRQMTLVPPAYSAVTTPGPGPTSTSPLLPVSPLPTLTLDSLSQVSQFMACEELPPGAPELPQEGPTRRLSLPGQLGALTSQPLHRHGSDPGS

Row | SMILES | hERG current change (%, negative = inhibition) at 1uM [%]
1 | Cc1c(NC(=O)c2cccc(F)c2)c(=O)n(-c2ccccc2)n1C | 18
2 | CC1(c2nnc(-c3ccc(F)cc3)o2)CC(c2cccc(Cl)c2)=NO1 (stereo not shown) | 0.846
3 | Nc1c(C(=O)NCCCc2ccccc2)c2nc3ccccc3nc2n1Cc1cccs1 | 6.78
4 | COc1cc(NC(=O)c2ccccc2Cl)c(OC)cc1NC(=O)CN1CCCCC1 | 0.137
5 | O=C1NCCN(Cc2ccc(Cl)c(F)c2)C1CC(=O)N1CCCCO1 (stereo not shown) | 11.1
6 | CCC(=O)N1c2ccc(S(=O)(=O)CCC(=O)NC3CCCC3)cc2CC1C (stereo not shown) | 0.06
7 | COc1ccc(NC(=O)C2CCN(c3nc(-c4ccc(OC)cc4)no3)CC2)cc1 | 14.8
8 | CN(C(=O)c1ccc(NC(=O)Cc2cccc(NC(=O)C3CCCN(C(=O)C4CC4)C3)c2)cc1)C1CCCC1 (stereo not shown) | 9.29
9 | O=C1Nc2ccccc2CCC1Sc1nnc(-c2ccc(Cl)cc2)s1 (stereo not shown) | 4.32
10 | COC(=O)/C=C1/N/C(=N\c2nc(C)cc(C)n2)N(c2cccc(C)c2)C1=O | 1.56
11 | COC(=O)Nc1nnc(COc2cccc(C)c2)s1 | 14.6
12 | COc1ccccc1N1CCN(CC(O)COc2ccc(C)cc2C)CC1.Cl (stereo not shown) | -31
13 | CCOC(=O)Cn1c(-c2cccnc2Cl)nc2cc(Cl)c(Cl)cc21 | 0.794
14 | Cc1ccc(NC(=S)N(N)CCO)cc1 | 8.27
15 | Cc1cccc(OCCCN2C(=O)C(=O)c3cc(C)ccc32)c1 | -0.187
16 | Cc1cccc(C)c1NC(=O)CSCCO | 12.7
17 | CC(C)c1ccc(C(C)NC(=S)NC2CCCCC2)cc1 (stereo not shown) | 8.95
18 | CCN1CCN(S(=O)(=O)c2ccc(OC)cc2)CC1 | 9.32
19 | N#Cc1cnc2c(-c3ccccc3)c(-c3ccccc3)nn2c1N | 0.284
20 | CCOc1ccc(/C=N/NC(=O)C2CCCC2)c(OCC)c1 | -2.55
21 | Cc1ccc(CC(=O)Nc2ccccc2-c2ccccc2)cc1C | 9.09
22 | CCC1(c2ccccc2)NC(=O)N(CC(=O)NCc2ccccc2OC)C1=O (stereo not shown) | 14.4
23 | O=C(NC1CCCCC1)C(c1ccccc1)N(C(=O)c1cccs1)c1ccc2c(c1)OCO2 (stereo not shown) | 3.71
24 | COc1ccccc1Oc1ccc2c(c1)C(=O)N(c1cccc(O)c1)C2=O | 17.7
25 | CC(C)c1ccc2c(c1)c(SC(C)(C)C)c(CC(C)(C)C(=O)[O-])n2Cc1ccc(Cl)cc1.[Na+] | 10.1
